Several values for one entry are separate records, joined by “and”; a condition that tells them apart may be missing. Equal entries are not always repeated. Inconclusive results, whose numbers are uncertain, are shown with a selection of clear calls. For part of these data: Potencies of inconclusive entries are left out as doubtful fits. Activity calls are given as the source filed them. Calls come from the whole dose curve; as a rule, active = well fitted curve in either direction with a large enough effect (not every such curve was filed as active); inconclusive = small, poorly fitted or top-dose-only effect, or another doubt; inactive = flat fitted curve, though single readings scatter.
System: not listed separately
Assay: NFAT Signaling Pathway (AID 444);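 note: carbachol stimulus at about its EC50 of 1 µM final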
Conditions: Jurkat NFAT-bla M1, carbachol, beta-lactamase ratio, 5 h; at 17.2 µM (top of the series)
Method in brief: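 Read-out: CCF4 FRET ratio (460 nm/530 nm) after 1 h RT dye loading, used for %activity and AC50 from titration series. Cells: Jurkat NFAT-β-lactamase/M1 line, treated with compound plus 1 uM carbachol for 5 h, 37 °C.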
% is set by controls: 0 for no effect and ±100 for the full control effect; tags give direction and shape of the fitted curve.

| SMILES | activity change, negative = inhibition |
| --- | --- |
| CC(C)[N+]1(C)[C@@H]2CC[C@H]1CC(OC(=O)C(CO)c1ccccc1)C2 (some centres undefined) | active: -79.9% |
| CCC(=O)O[C@]1(C(=O)CCl)[C@@H](C)C[C@H]2[C@@H]3CCC4=CC(=O)C=C[C@]4(C)[C@@]3(F)[C@@H](O)C[C@@]21C | inactive: -24.5% |
| O=C(c1ccc(F)cc1)C1CCN(CCn2c(=O)[nH]c3ccccc3c2=O)CC1 | inactive: -11.4% and inactive: -13.2% |
| COc1ccc2c(c1)c(CC(=O)OCC(=O)O)c(C)n2C(=O)c1ccc(Cl)cc1 | inactive: 2.54% and inactive: 1.97% |
| Cc1cccc(CN2CCN(C(c3ccccc3)c3ccc(Cl)cc3)CC2)c1 (centres undefined) | inconclusive: -87.7% [inhibitor] |
| N[C@@H](Cc1ccc(O)c(O)c1)C(=O)O | inactive: 1.41% |
| Cc1cccc(N(C)C(=S)Oc2ccc3ccccc3c2)c1 | inconclusive: -38.2% [inhibitor] and inconclusive: -47.3% [inhibitor] |
| CN(C)CCCC1(c2ccc(F)cc2)OCc2cc(C#N)ccc21 (centres undefined) | inconclusive: -50.5% [inhibitor] |
| Nc1nc(F)nc2c1ncn2[C@@H]1O[C@H](CO)[C@@H](O)[C@@H]1O | inconclusive: -43.7% [inhibitor] |
| COC(=O)Nc1nc2ccc(C(=O)c3ccccc3)cc2[nH]1 | inconclusive: -42.3% [inhibitor] and inconclusive: -58.5% [inhibitor] |
| CC(NCCc1ccc(O)cc1)C(O)c1ccc(O)cc1 (centres undefined) | inconclusive: -52.9% [inhibitor] |
| COc1cc2nc(N3CCN(C(=O)C4COc5ccccc5O4)CC3)nc(N)c2cc1OC (centres undefined) | inconclusive: -62.2% [inhibitor] |
| Cc1cc(C(C)(C)C)cc(C)c1CC1=NCCN1 | inconclusive: -50% [inhibitor] and inconclusive: -93.9% [inhibitor] |
| Clc1ccccc1CN1CCc2sccc2C1 | inconclusive: -46.4% [inhibitor] and inconclusive: -65.6% [inhibitor] |
| Nc1nc2c(ncn2COC(CO)CO)c(=O)[nH]1 | inactive: 3.07% |
| Cc1cnc(NC(=O)C2=C(O)c3ccccc3S(=O)(=O)N2C)s1 | inactive: -9.71% |
| NS(=O)(=O)c1cc2c(cc1Cl)NC(C(Cl)Cl)NS2(=O)=O (centres undefined) | inconclusive: -34.1% [inhibitor] |

Same assay, conditions: Jurkat NFAT-bla M1, carbachol, beta-lactamase ratio, 5 h; at 38 µM (top of the series)

| SMILES | activity change, negative = inhibition |
| --- | --- |
| O=c1[nH]cnc2[nH]ncc12 | inactive: 5.26% |
| NC(=O)c1cnccn1 | inactive: 2.31% |
| O=C(c1ccc(F)cc1)C1CCN(CCn2c(=O)[nH]c3ccccc3c2=O)CC1 | inconclusive: -35.9% [inhibitor] |
| N[C@@H](Cc1ccc(O)c(O)c1)C(=O)O | inactive: 18.2% |
| Cc1cc(C(C)(C)C)cc(C)c1CC1=NCCN1 | inconclusive: -59.1% [inhibitor] |
| Nc1nc2c(ncn2COC(CO)CO)c(=O)[nH]1 | inactive: -0.352% |
| Cc1cnc(NC(=O)C2=C(O)c3ccccc3S(=O)(=O)N2C)s1 | inactive: 11.3% |

System: not listed separately
Assay: Stat Signaling Pathway (AID 446);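 note: ME-180 cervical cancer cells given 40 pM IL-6 alongside compound; SIE-controlled beta-lactamase reporter measured as 460/530 nm FRET emission ratio; top concentration of the series differs between compounds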
Conditions: ME-180 SIE beta-lactamase reporter, IL-6 stimulated, 5 h; at 17.2 µM (top of the series)
Method in brief: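 ME-180 cells carrying a SIE-driven beta-lactamase reporter are stimulated with 40 pM IL-6 for 5 h at 37C in the presence of compound. The 460/530 nm FRET substrate ratio is read after 2.5 h at RT. Data are normalised to 300 pM IL-6 and to 125 nM JAK inhibitor controls.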

| SMILES | activity, negative = inhibition |
| --- | --- |
| Nc1ccc(S(=O)(=O)Nc2ncccn2)cc1 | inactive: -8.55% and inactive: -4.68% |
| Nc1ccc(S(N)(=O)=O)cc1 | inactive: 25.4% |
| O=c1c(O)c(-c2ccc(O)cc2O)oc2cc(O)cc(O)c12 | inconclusive: -30.4% [inhibitor] |

Same assay, conditions: ME-180 (cervical carcinoma) SIE beta-lactamase reporter, IL-6 stimulated, 5 h; at 38 µM (top of the series)

| SMILES | activity, negative = inhibition |
| --- | --- |
| O=C(c1ccc(F)cc1)C1CCN(CCn2c(=O)[nH]c3ccccc3c2=O)CC1 | inconclusive: 140% [activator] |
| N[C@@H](Cc1ccc(O)c(O)c1)C(=O)O | inconclusive: -30.7% [inhibitor] |
| NCCCCNCCCN | inconclusive: -32.5% [inhibitor] |
| O=c1c(O)c(-c2ccc(O)cc2O)oc2cc(O)cc(O)c12 | inconclusive: -42.5% [inhibitor] |

Molecular target: Mitogen-activated protein kinase 10 (Mus musculus) (UniProt Q61831)
Assay: JNK3 AlphaScreen Assay (AID 530);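 note: kinase came from lysate of stimulated human HepG2 cells; signal reports phosphorylation of biotinylated GST-cJun 1-79 at Ser73 with 10 µM ATP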; note: potency is the fitted concentration of half-maximal effect
Conditions: JNK3 lysate, c-Jun phosphorylation; activity change, negative = inhibition: at 57.1 µM (top of the series)
Method in brief: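 Compound titrations were preincubated 15 minutes at room temperature with substrate, antibody and pre-activated JNK3-containing HepG2 lysate. Reactions were started with 10 uM ATP and stopped with EDTA-containing bead buffer for AlphaScreen detection.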

| SMILES | Potency | activity change, negative = inhibition |
| --- | --- | --- |
| COc1ccc(Cc2nccc3cc(OC)c(OC)cc23)cc1OC | inconclusive [inhibitor, full curve, poor fit] | – |
| COc1ccc(CCN(C)CCCOc2ccc(S(=O)(=O)c3[nH]c4ccccc4c3C(C)C)cc2)cc1OC | inconclusive [activator, full curve, poor fit] | – |
| COc1cc2c(cc1OC)[C@@H]1C(=O)c3ccc4c(c3O[C@@H]1CO2)C=CC(C)(C)O4 | inconclusive [inhibitor, partial curve] | – |
| NCCCCNCCCN | inconclusive [activator, full curve, poor fit] | – |
| Cc1cccc(N(C)C(=S)Oc2ccc3ccccc3c2)c1 | inconclusive [activator, partial curve] | – |
| CCCCC[C@H](O)C=C[C@H]1[C@H](O)CC(=O)[C@H]1CCCCCCC(=O)O | – | inactive: 13.1% |
| CCCOc1ccc(C(=O)OCCN(CC)CC)cc1N | – | inactive: 5.65% [at 25.6 µM] |
| CC1=NN(c2ccccc2)C(=O)C1 | inconclusive [inhibitor, partial curve] | – |

Source: PubChem BioAssay (NCATS)
